Assay results reported in paper PMC9574860, “Chemical Toolkit for PARK7: Potent, Selective, and High-Throughput” (Journal of Medicinal Chemistry, 2022).
Hit rate of the full screen: of about 7,900 compounds, about 400 (5.1%) showed an effect of 50% or more. The list shows a part of the results.

Biological target: Parkinson's disease protein 7 (PARK7/DJ1) (human, UniProt Q99497)
Test: primary screen, percent inhibition; read as competition with a fluorescent probe by fluorescence polarization; higher = more effect of the substance
Details: 100 µM
How it was run: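 Covalent fragments at 100 μM final were incubated 2 h with 0.2 μM PARK7, then 20 nM probe JYQ-107 added for a further 2 h. Fluorescence polarization read at 480/520 nm; relative FP loss versus reference controls gave remaining enzyme activity.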

Parkinson's disease protein 7 (PARK7/DJ1), sequence (Q99497 whole entry, looked up): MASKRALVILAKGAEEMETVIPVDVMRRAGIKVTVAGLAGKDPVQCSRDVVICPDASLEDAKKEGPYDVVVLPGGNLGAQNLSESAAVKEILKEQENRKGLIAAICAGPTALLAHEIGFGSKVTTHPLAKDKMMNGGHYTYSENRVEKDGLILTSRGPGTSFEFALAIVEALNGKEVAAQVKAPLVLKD

Q: With C=CC(=O)Nc1cccc(-c2noc(C3CCCO3)n2)c1 (centres unmarked) as the compound, how does the Inhibition % read?
A: 5.67%

Q: How did the Inhibition % turn out when COc1ccc(OC)c(C(C)NC(=O)CCl)c1 (centres unmarked) was run?
A: 11.2%

Q: Which Inhibition % does the source give for Cc1ccc(Nc2nccnc2C#N)cc1C here?
A: 5.08%

Q: Which Inhibition % does the source give for Cc1cc(C=C(C#N)C(=O)O)c(C)n1CC(C)C here?
A: 8.48%

Q: C=CC(=O)N1CCCCCC1c1noc(-c2cnn(C)c2)n1 (centres unmarked) was tested. Which Inhibition % did it give?
A: 8.62%

Q: With COc1cccc(SCCN2C(=O)CCC2=O)c1 as the compound, how does the Inhibition % read?
A: 5.57%

Q: Which Inhibition % does the source give for C=CC(=O)N1CCN(C)c2cc(F)ccc21 here?
A: 14.6%

Q: With Cc1ccc(N(CCC#N)C(=O)CCl)cc1C as the compound, how does the Inhibition % read?
A: 15.3%

Q: For CN(Cc1c(F)cccc1Cl)C(=O)Cn1cnc(C#N)n1, which Inhibition % is on record?
A: 10.3%

Q: How did the Inhibition % turn out when Cc1conc1NS(=O)(=O)c1ccc(S(=O)(=O)F)cc1 was run?
A: 27%

Q: Which Inhibition % does the source give for C=CC(=O)NCC(=O)N1Cc2ccccc2C1 here?
A: 5.85%

Q: Which Inhibition % does the source give for CCNC(=O)C(C#N)=Cc1ccc(O)c(OCC)c1 here?
A: -0.455%

Q: With Cl.Nc1cccc(-c2noc(=O)[nH]2)c1 as the compound, how does the Inhibition % read?
A: 17.1%

Q: How did the Inhibition % turn out when O=C(CCl)N1CCN(S(=O)(=O)c2cccc(F)c2)CC1 was run?
A: 5.99%

Q: With CN(C)CCOc1ccc(B2OC(C)(C)C(C)(C)O2)cc1 as the compound, how does the Inhibition % read?
A: 3.21%

Q: With CCc1cccc(NC(=O)CCl)c1 as the compound, how does the Inhibition % read?
A: 14.1%

Q: How did the Inhibition % turn out when Cc1ccccc1N1C(=O)CN=C1S was run?
A: 2.06%

Q: How did the Inhibition % turn out when CS(=O)(=O)OCC1CCC(F)(F)C1 (centres unmarked) was run?
A: 3.17%

Q: How did the Inhibition % turn out when COc1cccc2c1N(C(=O)CN1CCSC1=O)CCC2 was run?
A: 3.52%

Q: For CC(C)(C(=O)CCl)N1C(=O)c2ccccc2C1=O, which Inhibition % is on record?
A: 5.76%

Q: Which Inhibition % does the source give for N#CN(Cc1ccon1)c1cccc(F)c1 here?
A: 7.1%

Q: With Cc1ccc(F)c(N(C#N)Cc2nnc(C)o2)c1 as the compound, how does the Inhibition % read?
A: 69%

Q: With C=CC(=O)NC(c1ccc(C)cc1)C(C)S(C)(=O)=O (centres unmarked) as the compound, how does the Inhibition % read?
A: 2.52%

Q: Which Inhibition % does the source give for O=C(C1CCOCC1)N1CC(S(=O)(=O)F)C1 here?
A: 21.8%

Q: With N#CC=CS(=O)(=O)c1ccc(Cl)cc1 as the compound, how does the Inhibition % read?
A: 5.95%

Q: Which Inhibition % does the source give for Cc1c(C#N)c(NC(=O)CCl)n(C2CCCCC2)c1C here?
A: 15.6%

Q: With Cc1nc(S(=O)(=O)F)[nH]c1C.Cl as the compound, how does the Inhibition % read?
A: 6.55%

Q: With Cn1cc(C=C2N=C(c3cccc(Cl)c3)OC2=O)cn1 as the compound, how does the Inhibition % read?
A: 2.2%

Q: Which Inhibition % does the source give for Cc1cccc(OCCNC(=O)CCl)c1 here?
A: 12.5%

Q: With Cc1ccc(-c2noc(CN3C(=O)CCC3=O)n2)cc1 as the compound, how does the Inhibition % read?
A: 0.305%

Q: Cc1cccc(C2CO2)c1 (centres unmarked) was tested. Which Inhibition % did it give?
A: 7.63%

Q: How did the Inhibition % turn out when CC1(C)OB(CC2CC3(CCOCC3)C2)OC1(C)C was run?
A: 3.09%

Q: With C#CCNS(=O)(=O)C=Cc1ccc(Cl)cc1 as the compound, how does the Inhibition % read?
A: 4.44%

Q: Which Inhibition % does the source give for C=CC(=O)N[C@H]1C[C@H](c2ccccc2C)C1 here?
A: 9.78%

Q: For Cc1ccc(S(=O)(=O)n2nc(O)cc2N)cc1, which Inhibition % is on record?
A: 12.4%

Q: For O=C(CCl)c1ccc2c(c1)COC2, which Inhibition % is on record?
A: 72.7%

Q: Which Inhibition % does the source give for N#Cc1cc(N2CCCC(F)C2)ccn1 (centres unmarked) here?
A: 8.69%

Q: For O=C(Sc1cccc2cccnc12)N1CCOCC1, which Inhibition % is on record?
A: 10.7%

Q: For O=C1NC2CCCCCC12 (centres unmarked), which Inhibition % is on record?
A: 9.84%

Q: With Cn1cc(C=C(C#N)c2ccc(C(F)(F)F)cn2)cn1 as the compound, how does the Inhibition % read?
A: -13.2%

Q: Which Inhibition % does the source give for O=C(Nc1ccccc1)C1CCN(C(=O)CCl)CC1 here?
A: 12.6%

Q: For CC1CC(Nc2ccc(Cl)c(C(N)=O)c2)C(=O)O1 (centres unmarked), which Inhibition % is on record?
A: 5.86%

Q: How did the Inhibition % turn out when CC1(O)CCCN(C(=O)CCN2C(=O)CCC2=O)C1 (centres unmarked) was run?
A: 3.32%

Q: How did the Inhibition % turn out when CCOC(=O)c1cc(B2OC(C)(C)C(C)(C)O2)[nH]n1 was run?
A: 2.66%

Q: How did the Inhibition % turn out when O=C(CN1CCSC1=O)Nc1cnc2ccccc2c1 was run?
A: 3.33%

Q: Which Inhibition % does the source give for C=CC(=O)NC1COc2c(Cl)cccc21 (centres unmarked) here?
A: 10.4%

Q: Which Inhibition % does the source give for OC(CCC1CO1)c1ccccc1 (centres unmarked) here?
A: 8.56%

Q: CN(C)C=CC(=O)c1cccnc1 was tested. Which Inhibition % did it give?
A: 7.32%

Q: CC(C)NC(=O)C(C#N)=Cc1cncn1C(C)C was tested. Which Inhibition % did it give?
A: 0.108%

Q: Which Inhibition % does the source give for C=CC(=O)N1CCC(C(=O)NCC(F)(F)F)C1 (centres unmarked) here?
A: 4.08%

Q: With CC1(C)OB(c2cc(F)c3c(c2)CC(=O)N3)OC1(C)C as the compound, how does the Inhibition % read?
A: 9.79%

Q: For Cc1cc(C)n(C(C)CC(=O)Nc2cccc(B(O)O)c2)n1 (centres unmarked), which Inhibition % is on record?
A: -1.61%

Q: With C=CC(=O)N1CCOCC1COC (centres unmarked) as the compound, how does the Inhibition % read?
A: 7.61%

Q: For Cn1cnc(NS(=O)(=O)c2ccc(S(=O)(=O)F)cc2)n1, which Inhibition % is on record?
A: 5.05%

Q: How did the Inhibition % turn out when C=CC(=O)N[C@@H]1CCCOC1 was run?
A: 4.38%

Q: For COc1cccc(N2CCN(CCS)CC2)c1.Cl.Cl, which Inhibition % is on record?
A: 23.6%

Q: For C=CCNC(=O)C(C#N)=CC=Cc1ccccc1, which Inhibition % is on record?
A: 4.25%

Q: Which Inhibition % does the source give for CC(C)(C)OC(=O)n1c(B2OC(C)(C)C(C)(C)O2)cc2ccccc21 here?
A: 5.05%

Q: How did the Inhibition % turn out when Cc1ccc2cc(B(O)O)ccc2n1 was run?
A: 2.94%

Q: For CCN(CC)C(=O)Oc1ccc(N2CCCC2)cc1, which Inhibition % is on record?
A: -3.98%

Q: For O=C(Cc1ccc2c(c1)CCO2)Nc1cccc(S(=O)(=O)F)c1, which Inhibition % is on record?
A: 94.3%

Q: How did the Inhibition % turn out when O=C1OC(c2ccc(F)c(F)c2)=NC1=Cc1csnn1 was run?
A: 4.11%

Q: For CC1CC(Nc2ccc3c(c2)CCCC(=O)N3)C(=O)O1 (centres unmarked), which Inhibition % is on record?
A: 10.7%

Q: With N#Cc1ccc(NC2CCc3ccccc32)cn1 (centres unmarked) as the compound, how does the Inhibition % read?
A: 18.8%

Q: O=C(c1cccnc1S)N1CCOC2(CCOCC2)C1 was tested. Which Inhibition % did it give?
A: -0.763%

Q: CN(C)c1ccc(NS(=O)(=O)C=Cc2ccccc2)cn1 was tested. Which Inhibition % did it give?
A: 69.9%

Q: CCCn1nc2c(cc1=O)CN(C1CC(C)OC1=O)CC2 (centres unmarked) was tested. Which Inhibition % did it give?
A: 86.8%

Q: C=CC(=O)NC(=O)NC1CCC1 was tested. Which Inhibition % did it give?
A: 5.59%

Q: How did the Inhibition % turn out when Cl.ClCCN1CCCC1 was run?
A: -2.21%

Q: With CC1(C)OB(c2cccnc2)OC1(C)C as the compound, how does the Inhibition % read?
A: 3.19%

Q: CN(C)S(=O)(=O)c1ccc2c(c1)CCCN2C(=O)CCl was tested. Which Inhibition % did it give?
A: 8.14%

Q: Which Inhibition % does the source give for NS(=O)(=O)c1ccc(S)nc1 here?
A: 22.6%

Q: How did the Inhibition % turn out when CSc1ccnc(C#N)c1 was run?
A: 16.2%

Q: How did the Inhibition % turn out when C=CC(=O)N1Cc2ccccc2OC(C)(C)C1 was run?
A: 13.6%

Q: Which Inhibition % does the source give for CC1CC(Sc2nncn2-c2ccccc2F)C(=O)O1 (centres unmarked) here?
A: 0.0122%

Q: With CC(C)(C)SCCOc1cccnc1C#N as the compound, how does the Inhibition % read?
A: 9.17%

Q: Which Inhibition % does the source give for C=CC(=O)NCc1oc(C(C)C)nc1C here?
A: 13.4%
